In all, about 310,000 compounds went through this assay and about 2,200 (0.71%) showed an effect of 50% or more. Effects have a minus sign here. This is one part of the list.
biological target: human ether-à-go-go-related gene (hERG) potassium channel (human, UniProt Q12809); assay: primary screen, population patch clamp on CHO cells stably expressing hERG
Sequence (Q12809 whole entry, looked up): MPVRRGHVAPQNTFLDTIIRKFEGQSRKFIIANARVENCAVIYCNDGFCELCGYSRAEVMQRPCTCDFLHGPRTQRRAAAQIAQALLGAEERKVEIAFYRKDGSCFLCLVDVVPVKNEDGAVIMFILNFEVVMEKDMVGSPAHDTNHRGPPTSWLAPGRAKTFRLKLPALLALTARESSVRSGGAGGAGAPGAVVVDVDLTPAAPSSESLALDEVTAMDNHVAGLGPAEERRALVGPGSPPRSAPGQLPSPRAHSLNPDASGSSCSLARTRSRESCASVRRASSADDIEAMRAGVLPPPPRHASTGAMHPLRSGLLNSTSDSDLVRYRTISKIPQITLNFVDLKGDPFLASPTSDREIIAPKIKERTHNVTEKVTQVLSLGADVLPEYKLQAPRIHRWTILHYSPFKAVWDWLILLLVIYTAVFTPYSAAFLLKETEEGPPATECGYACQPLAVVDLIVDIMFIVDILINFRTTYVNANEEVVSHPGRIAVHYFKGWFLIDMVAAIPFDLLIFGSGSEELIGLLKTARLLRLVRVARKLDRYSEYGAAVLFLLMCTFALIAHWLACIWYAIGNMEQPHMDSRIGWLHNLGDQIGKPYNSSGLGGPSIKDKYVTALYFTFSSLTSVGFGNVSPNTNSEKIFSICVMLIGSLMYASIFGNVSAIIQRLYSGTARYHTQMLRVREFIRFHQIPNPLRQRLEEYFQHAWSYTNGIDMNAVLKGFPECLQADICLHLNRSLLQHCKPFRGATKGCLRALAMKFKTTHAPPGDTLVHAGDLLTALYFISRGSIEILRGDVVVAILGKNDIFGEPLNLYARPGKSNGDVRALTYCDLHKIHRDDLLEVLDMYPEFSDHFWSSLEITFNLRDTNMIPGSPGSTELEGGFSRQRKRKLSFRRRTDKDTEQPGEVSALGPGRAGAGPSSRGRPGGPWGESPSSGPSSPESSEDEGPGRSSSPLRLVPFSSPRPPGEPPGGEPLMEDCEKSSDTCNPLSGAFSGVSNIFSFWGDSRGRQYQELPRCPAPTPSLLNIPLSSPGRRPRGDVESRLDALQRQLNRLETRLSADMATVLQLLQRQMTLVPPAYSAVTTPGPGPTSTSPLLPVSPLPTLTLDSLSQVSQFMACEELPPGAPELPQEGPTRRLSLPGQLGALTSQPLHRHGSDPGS

Row | Structure (SMILES) | hERG current change (%, negative = inhibition) at 1uM [%]
1 | O=C(c1ccccc1)c1ccc2ccccc2n1 | 6.46
2 | O=C1C2N=NN(CC(=O)N3N=C(c4ccccc4)CC3c3ccc([N+](=O)[O-])cc3)C2C(=O)N1c1ccccc1 (stereo not shown) | 8.18
3 | COc1ccc(C2(c3ccc(OC)cc3)NC(=O)N(CC(=O)Nc3cc(C)ccc3OC)C2=O)cc1 | 8.47
4 | COc1cc(OC)cc(-n2nnnc2SCC(=O)NCc2cccs2)c1 | 7.67
5 | Oc1nc(Nc2ccc(F)cc2)sc1/C=C1\C=Nc2ccccc21 | 8.9
6 | O=C(O)COCC(=O)NCc1csc2ccccc12 | 8.69
7 | CN(C)S(=O)(=O)c1ccc(C(=O)Nc2nnc(Cc3ccccc3)s2)cc1 | 6.04
8 | CCC(Sc1nc(=O)cc(N)n1-c1cccc(C)c1)C(=O)Nc1cc(C)on1 (stereo not shown) | -0.277
9 | O=C(c1ccc(Br)o1)N1CCN(Cc2ccc3c(c2)OCO3)CC1 | -4.49
10 | CC(=O)c1ccc(N2CCN(c3ccc(S(=O)(=O)NCCN(C)C)cc3[N+](=O)[O-])CC2)cc1 | -4.69
11 | O=C(CN1C(=O)C2C3C=CC(C3)C2C1=O)OCC(=O)c1ccc([N+](=O)[O-])cc1 (stereo not shown) | 8.41
12 | Cc1ccc2nc(-c3ccc(NC(=S)NC(=O)CC(C)C)cc3)sc2c1 | 6.59
13 | CN(C)C(=O)OCc1c(-c2ccccc2)ncc2ccccc12 | 11.3
14 | CCOc1cc(C)c(S(=O)(=O)Nc2ccc3cn[nH]c3c2)cc1C | 19.3
15 | CC(C)OC(=O)CCCCCN1C(=O)CSC1=S | 6.02
16 | CCCc1cc(=O)oc2cc(OCC(=O)N3CCN(Cc4ccc5c(c4)OCO5)CC3)ccc12 | 4.76
17 | O=C(c1cccs1)N1CCN(C/C=C/c2ccccc2)CC1 | -16.9
18 | CCc1nc(NCC2CCCO2)c(C#N)c2c1COC(C)(C)C2 (stereo not shown) | 5.51
19 | COC(=O)c1c(NC(C)=O)sc(Cc2ccccc2)c1C | 10.7
20 | COc1ccc(C(=O)O/N=C(\N)c2ccccc2)cc1OC | 12.3
21 | O=C(C1CCCN(S(=O)(=O)c2ccc([N+](=O)[O-])cc2)C1)N1CCCCC1 (stereo not shown) | -23.1
22 | NC(=O)c1nsc(C(=O)N(c2cccc(F)c2)C(C(=O)NCc2ccccc2)c2ccc(O)cc2)c1N (stereo not shown) | 4.16

Row | Structure (SMILES) | hERG current change (%, negative = inhibition) at 1uM [%]
23 | CCC(=O)N1CCc2cc(Br)cc(S(=O)(=O)N3CCN(C(=O)c4ccco4)CC3)c21 | 6.57
24 | CC(C)(C)C(=O)N1CCC(O)(CS(=O)(=O)c2ccc(Cl)c(Cl)c2)CC1 | 14.1
25 | C=C1CCC2[C@](C)(CO[C@@H]3O[C@H](CO)[C@@H](O)[C@H](O)[C@H]3O)CCC[C@@]2(C)[C@@H]1CCC1=CCOC1=O (stereo partly shown) | 15.4
26 | Cc1cccc(C(=O)Nc2ccnc(-c3ccncc3)n2)c1 | -7.53
27 | N#CC1=C(N)NC(SCC(=O)Nc2ccccc2)=C(C#N)C12CCCCC2 | 3.48
28 | CCOc1cc2[nH]c(=S)n(C3CC3)c(=O)c2cc1OCC | 10.2
29 | COc1cc(NC(=O)c2ccc([N+](=O)[O-])cc2)ccc1NC(=O)C(C)C | 6.67
30 | COc1ccccc1C(CNC(=O)c1cccc(S(=O)(=O)Nc2ccc(F)cc2)c1)N(C)C (stereo not shown) | 3.93
31 | Cc1cc(C)cc(NC(=O)NCc2c(-c3ccccc3)noc2C)c1 | 12.5
32 | O=C(CCN1CCN(c2ccccc2)CC1)N/N=C/c1ccccc1OC(F)F | -2.32
33 | Fc1ccc(NC(=S)NCCc2ccccn2)cc1 | 8.99
34 | COc1cccc(C2CN(c3ccc(F)cc3F)N=C2c2cccs2)c1OC (stereo not shown) | 19.1
35 | COc1ccccc1CN1C(=O)CN(C2CCCCCC2)C(=O)C1c1ccc(F)cc1 (stereo not shown) | -15.4
36 | O=C(c1ccco1)N1CCN(c2c(-c3ccccc3)c3cc(Cl)ccc3[nH]c2=O)CC1 | 2.61
37 | COc1cccc(-n2nnnc2SCC(=O)NCc2ccco2)c1 | 1.76
38 | CC1Cc2ccccc2N1C(=O)C12CCC(C)(C(=O)C1)C2(C)C (stereo not shown) | 12
39 | Cc1cc(C(F)F)n2nc(C(=O)Nc3ccc(F)cc3F)nc2n1 | 4.36
40 | CCc1ccc(NC(=O)c2cc(C)no2)cc1 | -11.4
41 | CCOc1ccc(-c2c(=O)n(OCc3ccccc3Br)c3ccccc3[n+]2[O-])c(OCC)c1 | 9.85
42 | COCCCn1c2nc3ccccc3nc2c2c(=O)n(CC3CCCO3)cnc21 (stereo not shown) | -20.5
43 | CSc1cccc(NC(=O)c2nnn(CC(=O)Nc3cc(C)cc(C)c3)c2N)c1 | 19.2
44 | Cc1cc(C)cc(NC(=O)c2cccc(NC3=NC4CS(=O)(=O)CC4S3)c2)c1 (stereo not shown) | 18.7

Row | Structure (SMILES) | hERG current change (%, negative = inhibition) at 1uM [%]
45 | COc1ccc(SCCCn2c(=O)c3c(ncn3C)n(C)c2=O)cc1 | -0.685
46 | CN1C(=O)c2ccccc2N(C)C1c1cccc(O)c1 (stereo not shown) | 11.4
47 | O=C(O)c1ccc(N2C(=O)CCCC2=O)cc1 | 11.6
48 | CCCc1cc(-c2[nH]ncc2-c2ccc(C(=O)OCC)o2)c(O)cc1O | 10.3
49 | CCCN1CCN(C(=O)c2ccc(CS(=O)c3ccc(Cl)cc3)o2)CC1 (stereo not shown) | 4.79
50 | C/C(=N\NC(=O)c1c(Cl)cnn1C)c1ccc(NC(=O)c2ccc(Br)o2)cc1 | 3.29
51 | N#Cc1c(N)nc(SCc2ccccc2)c(C#N)c1-c1ccco1 | -2.7
52 | COCCCNC(=O)/C(C#N)=C1\N=C(NC(=O)c2cccs2)c2ccccc21 | 4.63
53 | CCN(CC)C(=O)COC(=O)c1cc(-c2ccc(OC)cc2)nc2ccccc12 | 7.92
54 | CC(=O)N1CCN(S(=O)(=O)c2ccc(C)cc2)C1c1ccc(N(C)C)cc1 (stereo not shown) | 4
55 | O=Cc1c(N2CCN(c3ccccc3)CC2)nc2ccccn2c1=O | 2.26
56 | COc1ccc(S(=O)(=O)N[C@H](C(=O)N2CC[C@@]3(O)CCCC[C@H]3C2)c2ccccc2)cc1 | -2.39
57 | CC(=O)N1c2ccc(S(=O)(=O)NCC3CCC(C(=O)Nc4ncccc4C)CC3)cc2CC1C (stereo not shown) | -6.52
58 | CN1c2cccc3cccc(c23)N(C)C1c1cccs1 | 7.57
59 | COc1ccccc1N1CCN(C(=O)Nc2ccc(F)c(Cl)c2)CC1 | 8.22
60 | CCOC(=O)Nc1nnc(CCc2ccccc2)s1 | -2.65
61 | COc1ccc(S(=O)(=O)N2CCN(C(=O)c3cccs3)CC2)cc1 | -8.69
62 | CC1=C(C(N)=O)C(c2cccs2)n2ncnc2N1 (stereo not shown) | 6.48
63 | NNc1nc(Nc2ccc([N+](=O)[O-])cc2)nc(N2CCCCCC2)n1 | 21.7
64 | Cc1ccc(C)c(Oc2nnnn2-c2ccccc2)c1 | 7.58
65 | COc1ccc(CC(=O)NC(CC(=O)O)c2cccc([N+](=O)[O-])c2)cc1 (stereo not shown) | 3.56
66 | Cc1ccc(OCc2cc(C(=O)N3CCN(C4CCCCC4)CC3)no2)cc1C | 11.7

Row | Structure (SMILES) | hERG current change (%, negative = inhibition) at 1uM [%]
67 | O=C1[C@H]2[C@@H](c3ccc(F)cc3)N3C(=O)N(c4cccc(Cl)c4)C(=O)[C@@]3(Cc3ccccc3)[C@H]2C(=O)N1C1CCCCC1 | 10.9
68 | O=C(Nc1ccccc1F)C1CCCN(S(=O)(=O)c2ccc(-n3cnnn3)cc2)C1 (stereo not shown) | 4.41
69 | O=C(CSCc1ccccc1Br)N/N=C/c1ccccc1C(=O)O | 18.4
70 | Cc1ccc(CN2CCC(=O)N2)cc1 | 18.5
71 | O=C(COC(=O)/C=C/c1cccc(Cl)c1)NC1CCCC1 | 10.1
72 | COc1ccc(CCNC(=O)C2CC(=O)N(CCc3ccccc3)C2)cc1OC (stereo not shown) | 17.2
73 | Cc1ccsc1C(=O)Nc1cccc(-n2cnnn2)c1 | 5.88
74 | CC(=O)/C(N=Nc1ccc(-n2ccc(C(F)(F)F)n2)cc1)=C(\C)O | 9.6
75 | O=C(Nc1ccccc1C(=O)Nc1nnc(C(F)(F)F)s1)c1ccccc1 | 11
76 | O=C(Oc1ccccc1Cl)C1CCN(C(=O)c2ccc(F)cc2)CC1 | 3.19
77 | O=C(O)c1ccccc1SCC(=O)N1CCc2ccccc21 | 3.04
78 | Cc1cccc(NC(=O)CN2C(=O)N/C(=C/c3ccc(C)o3)C2=O)c1 | 10.4
79 | O=C(NCCN1CCCC1)C1CC(=O)N(C2CCCCC2)C1 (stereo not shown) | 13.8
80 | Fc1ccc(Nc2nc(-c3ccncc3)nc3ccccc23)cc1F | 5.14
81 | Cc1c([N+](=O)[O-])cc(C(=O)N2CCOCC2)cc1[N+](=O)[O-] | 7.34
82 | Cc1cc(Nc2cccc(C)c2C)n2nc(C)nc2n1 | -3.1
83 | CCOc1ccc(N2CC(C(=O)Nc3ncccc3C)CC2=O)cc1 (stereo not shown) | 4.83
84 | CC(=O)N(CCS(=O)(=O)c1ccc(Cl)cc1)Cc1cccs1 | 6.56
85 | Cc1ccc(S(=O)(=O)N(C)C2(C)CCS(=O)(=O)C2)cc1 (stereo not shown) | -2

Reference: publication PMC4336329 (PLoS ONE, 2015)
